Experimental data as given in paper PMC3517901.
Results are given in words; binding and its absence hold for the method and conditions named. For some assays here: Binding seen in cells or lysates may run through a third protein. Some results given as binding are weak or reduced against the parent protein; the word gives no strength. Sequences can lack the tags named with a protein. Blank lines part the entries; values can stand above or below the binder they belong to.

Protein sequences, listed by entry. Tags and fused reporters are not part of them. Lines headed by an entry give the natural chain unless they say otherwise; changes in a name come on top. Chains listed by the source or under a name are the forms on record and can include a tag or linker. Residues count along the entry.
UniProt P49815: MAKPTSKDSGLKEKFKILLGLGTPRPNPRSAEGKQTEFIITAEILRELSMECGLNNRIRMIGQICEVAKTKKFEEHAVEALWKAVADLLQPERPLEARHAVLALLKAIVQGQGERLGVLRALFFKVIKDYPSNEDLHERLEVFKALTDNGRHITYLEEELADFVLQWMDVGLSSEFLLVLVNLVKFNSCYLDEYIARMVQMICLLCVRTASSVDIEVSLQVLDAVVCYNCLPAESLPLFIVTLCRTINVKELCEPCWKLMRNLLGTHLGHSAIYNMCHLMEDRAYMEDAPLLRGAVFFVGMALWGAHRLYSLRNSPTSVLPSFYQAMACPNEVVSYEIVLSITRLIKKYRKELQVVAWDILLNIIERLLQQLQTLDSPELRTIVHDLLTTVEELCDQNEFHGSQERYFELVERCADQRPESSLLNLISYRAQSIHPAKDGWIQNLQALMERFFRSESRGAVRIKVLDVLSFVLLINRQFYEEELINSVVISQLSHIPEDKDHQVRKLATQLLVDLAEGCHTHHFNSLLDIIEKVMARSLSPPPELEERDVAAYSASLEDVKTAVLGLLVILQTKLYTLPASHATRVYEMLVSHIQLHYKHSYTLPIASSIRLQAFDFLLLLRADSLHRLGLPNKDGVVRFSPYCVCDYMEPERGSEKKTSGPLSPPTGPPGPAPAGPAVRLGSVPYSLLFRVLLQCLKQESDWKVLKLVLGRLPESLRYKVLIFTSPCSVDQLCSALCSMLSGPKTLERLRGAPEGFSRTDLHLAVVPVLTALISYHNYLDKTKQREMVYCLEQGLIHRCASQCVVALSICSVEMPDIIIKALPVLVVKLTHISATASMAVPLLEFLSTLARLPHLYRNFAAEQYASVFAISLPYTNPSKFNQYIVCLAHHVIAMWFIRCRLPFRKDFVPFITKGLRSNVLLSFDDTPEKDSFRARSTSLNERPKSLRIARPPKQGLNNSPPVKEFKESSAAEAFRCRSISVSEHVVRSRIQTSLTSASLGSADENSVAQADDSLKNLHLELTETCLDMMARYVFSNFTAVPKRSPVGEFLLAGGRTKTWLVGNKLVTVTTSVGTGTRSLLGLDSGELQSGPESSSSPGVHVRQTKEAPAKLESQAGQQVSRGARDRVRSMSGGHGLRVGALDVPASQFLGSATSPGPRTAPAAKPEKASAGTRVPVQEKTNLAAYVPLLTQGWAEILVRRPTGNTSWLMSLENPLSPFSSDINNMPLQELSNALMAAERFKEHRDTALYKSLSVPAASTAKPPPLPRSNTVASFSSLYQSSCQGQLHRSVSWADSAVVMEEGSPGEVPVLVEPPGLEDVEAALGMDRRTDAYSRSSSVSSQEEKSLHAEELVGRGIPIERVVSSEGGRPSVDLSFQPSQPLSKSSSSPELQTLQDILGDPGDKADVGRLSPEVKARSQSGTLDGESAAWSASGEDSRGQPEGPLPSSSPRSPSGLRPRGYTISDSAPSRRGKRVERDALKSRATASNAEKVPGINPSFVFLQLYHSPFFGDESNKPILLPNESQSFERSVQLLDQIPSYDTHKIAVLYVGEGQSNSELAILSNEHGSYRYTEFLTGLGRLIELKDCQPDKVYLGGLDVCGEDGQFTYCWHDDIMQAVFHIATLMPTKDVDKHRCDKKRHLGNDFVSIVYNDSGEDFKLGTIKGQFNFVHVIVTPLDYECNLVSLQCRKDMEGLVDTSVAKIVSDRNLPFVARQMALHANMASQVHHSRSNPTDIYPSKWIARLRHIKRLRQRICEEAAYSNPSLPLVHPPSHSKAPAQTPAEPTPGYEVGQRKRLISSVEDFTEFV
TSC2 A1153V5 (TSC2 amino acids 1-1153): residues 1-1153 of P49815
TSC2 F904V5 (TSC2 amino acids 1-904): residues 1-904 of P49815
TSC2 A614V5 (TSC2 amino acids 1-614): residues 1-614 of P49815
TSC2 M1453V5 (TSC2 amino acids 1453-1784): residues 1476-1807 of P49815
V5-tagged full-length TSC2 (P49815, form named): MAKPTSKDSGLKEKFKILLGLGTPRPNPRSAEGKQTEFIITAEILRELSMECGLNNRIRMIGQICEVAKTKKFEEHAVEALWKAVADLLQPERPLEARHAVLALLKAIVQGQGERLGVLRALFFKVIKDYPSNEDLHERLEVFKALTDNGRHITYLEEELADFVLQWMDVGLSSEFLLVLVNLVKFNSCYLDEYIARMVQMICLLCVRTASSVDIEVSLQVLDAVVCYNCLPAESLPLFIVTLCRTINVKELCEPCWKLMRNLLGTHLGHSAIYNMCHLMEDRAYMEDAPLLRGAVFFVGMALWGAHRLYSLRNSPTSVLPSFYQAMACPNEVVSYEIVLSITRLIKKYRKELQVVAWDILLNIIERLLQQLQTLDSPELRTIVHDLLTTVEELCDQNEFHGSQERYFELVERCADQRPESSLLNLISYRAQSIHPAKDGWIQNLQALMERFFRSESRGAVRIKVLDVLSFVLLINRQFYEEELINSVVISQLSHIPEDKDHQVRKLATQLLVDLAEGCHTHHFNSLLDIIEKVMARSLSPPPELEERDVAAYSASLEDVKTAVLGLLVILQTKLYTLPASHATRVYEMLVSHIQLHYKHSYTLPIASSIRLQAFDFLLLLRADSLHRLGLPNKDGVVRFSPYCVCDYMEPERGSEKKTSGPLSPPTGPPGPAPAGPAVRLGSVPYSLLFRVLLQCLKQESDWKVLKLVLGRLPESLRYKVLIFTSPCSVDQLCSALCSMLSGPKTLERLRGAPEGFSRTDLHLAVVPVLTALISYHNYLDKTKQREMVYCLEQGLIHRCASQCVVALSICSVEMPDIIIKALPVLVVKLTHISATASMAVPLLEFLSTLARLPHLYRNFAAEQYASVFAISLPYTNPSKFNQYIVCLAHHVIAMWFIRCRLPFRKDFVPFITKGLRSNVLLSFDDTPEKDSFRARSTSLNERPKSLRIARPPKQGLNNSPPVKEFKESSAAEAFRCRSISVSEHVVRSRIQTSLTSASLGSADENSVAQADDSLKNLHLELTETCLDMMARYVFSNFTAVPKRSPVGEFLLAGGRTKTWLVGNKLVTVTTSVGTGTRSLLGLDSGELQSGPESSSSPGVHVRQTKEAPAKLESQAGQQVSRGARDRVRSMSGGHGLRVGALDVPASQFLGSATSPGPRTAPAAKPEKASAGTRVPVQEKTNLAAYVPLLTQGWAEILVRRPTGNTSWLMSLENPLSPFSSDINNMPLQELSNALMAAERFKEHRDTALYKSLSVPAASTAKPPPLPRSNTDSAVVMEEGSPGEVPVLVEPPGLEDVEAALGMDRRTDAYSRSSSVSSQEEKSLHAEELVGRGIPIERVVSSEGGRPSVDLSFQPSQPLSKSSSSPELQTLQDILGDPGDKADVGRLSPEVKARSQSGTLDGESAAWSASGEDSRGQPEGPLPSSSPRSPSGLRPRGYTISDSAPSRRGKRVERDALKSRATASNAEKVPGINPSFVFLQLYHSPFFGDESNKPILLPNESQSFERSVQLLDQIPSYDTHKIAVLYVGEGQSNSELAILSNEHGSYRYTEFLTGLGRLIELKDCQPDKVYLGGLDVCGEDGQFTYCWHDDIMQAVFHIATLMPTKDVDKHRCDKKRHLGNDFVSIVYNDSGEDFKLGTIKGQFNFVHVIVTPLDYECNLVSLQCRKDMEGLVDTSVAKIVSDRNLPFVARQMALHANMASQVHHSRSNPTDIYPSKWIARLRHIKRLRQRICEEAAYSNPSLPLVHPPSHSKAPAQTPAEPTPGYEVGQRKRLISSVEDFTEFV
TSC2 M1028V5 (TSC2 amino acids 1028-1784) (P49815, form named): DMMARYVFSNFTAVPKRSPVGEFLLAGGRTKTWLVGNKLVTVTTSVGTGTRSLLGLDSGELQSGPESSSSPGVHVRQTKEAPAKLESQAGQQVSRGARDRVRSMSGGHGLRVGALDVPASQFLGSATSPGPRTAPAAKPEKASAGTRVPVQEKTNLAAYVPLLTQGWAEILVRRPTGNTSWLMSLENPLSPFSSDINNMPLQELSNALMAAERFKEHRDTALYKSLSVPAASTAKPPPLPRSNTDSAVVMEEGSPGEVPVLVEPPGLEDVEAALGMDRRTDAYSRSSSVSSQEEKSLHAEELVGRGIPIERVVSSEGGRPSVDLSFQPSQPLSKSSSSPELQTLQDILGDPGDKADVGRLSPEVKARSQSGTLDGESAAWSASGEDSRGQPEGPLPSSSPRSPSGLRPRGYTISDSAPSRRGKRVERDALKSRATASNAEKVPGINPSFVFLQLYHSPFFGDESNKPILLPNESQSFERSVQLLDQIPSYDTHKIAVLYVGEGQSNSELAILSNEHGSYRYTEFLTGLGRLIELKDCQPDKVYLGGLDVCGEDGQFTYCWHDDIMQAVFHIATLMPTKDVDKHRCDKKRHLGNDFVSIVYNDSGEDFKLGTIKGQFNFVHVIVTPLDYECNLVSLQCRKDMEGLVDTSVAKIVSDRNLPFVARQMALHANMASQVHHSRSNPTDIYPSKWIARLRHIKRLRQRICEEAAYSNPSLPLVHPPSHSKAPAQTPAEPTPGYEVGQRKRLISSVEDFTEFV

What was measured:
[1] = target: N-terminal Xpress epitope tagged TSC2 (UniProt P49815); test: co-IP; HEK 293T cells transfected with tagged constructs, with or without co-expressed TSC1; lysis in 50 mM HEPES pH 7.5, 10% glycerol, 1 mM DTT, 100 mM NaCl, 0.1% Triton X100; anti-V5 or anti-myc affinity beads, or anti-Xpress / anti-TSC2 with Protein A/G beads, 4°C; immunoblot
[2] = target: V5-tagged full-length TSC2 (UniProt P49815); test: as above
[3] = target: T1, TSC1 tagged with a C-terminal V5 epitope, Q92574; test: as above; conditions: remark: other sources report otherwise
T1 chain: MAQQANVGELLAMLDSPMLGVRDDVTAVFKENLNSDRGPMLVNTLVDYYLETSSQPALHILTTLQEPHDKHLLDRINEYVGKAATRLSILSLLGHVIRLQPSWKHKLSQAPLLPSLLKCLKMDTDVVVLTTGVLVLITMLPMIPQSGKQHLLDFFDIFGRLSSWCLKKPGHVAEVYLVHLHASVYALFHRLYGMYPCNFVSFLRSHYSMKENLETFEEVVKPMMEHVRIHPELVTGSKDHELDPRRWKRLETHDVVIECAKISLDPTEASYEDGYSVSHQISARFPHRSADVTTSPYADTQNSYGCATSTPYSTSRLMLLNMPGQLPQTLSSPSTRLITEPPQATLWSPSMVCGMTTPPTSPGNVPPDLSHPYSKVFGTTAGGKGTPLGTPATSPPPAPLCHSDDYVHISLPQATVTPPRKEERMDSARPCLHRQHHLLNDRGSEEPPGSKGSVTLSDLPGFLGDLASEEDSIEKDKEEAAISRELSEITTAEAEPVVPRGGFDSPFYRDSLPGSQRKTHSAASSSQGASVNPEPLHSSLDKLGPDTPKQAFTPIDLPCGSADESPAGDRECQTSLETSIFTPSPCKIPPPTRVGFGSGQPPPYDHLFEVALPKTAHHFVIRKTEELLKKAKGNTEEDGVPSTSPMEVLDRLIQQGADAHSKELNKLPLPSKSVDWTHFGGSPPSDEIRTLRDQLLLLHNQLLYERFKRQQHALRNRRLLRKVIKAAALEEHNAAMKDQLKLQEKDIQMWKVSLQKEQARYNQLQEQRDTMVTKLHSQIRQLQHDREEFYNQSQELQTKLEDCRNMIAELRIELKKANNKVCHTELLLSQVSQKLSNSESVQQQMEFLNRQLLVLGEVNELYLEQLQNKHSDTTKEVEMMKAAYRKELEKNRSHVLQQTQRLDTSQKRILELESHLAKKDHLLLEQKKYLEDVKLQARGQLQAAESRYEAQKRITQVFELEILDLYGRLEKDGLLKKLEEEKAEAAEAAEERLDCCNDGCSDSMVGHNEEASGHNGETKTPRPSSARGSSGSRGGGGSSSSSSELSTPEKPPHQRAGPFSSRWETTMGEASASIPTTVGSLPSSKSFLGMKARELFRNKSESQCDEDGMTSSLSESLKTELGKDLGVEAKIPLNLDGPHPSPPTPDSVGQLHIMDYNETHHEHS

[4] = target: T2, TSC1-TEV-myc, released from anti-myc beads by AcTEV, Q92574; test: SEC; TSC1-TSC2 complex from cotransfected HEK 293T cells, purified on anti-myc affinity beads, released by AcTEV overnight at 4°C, Coomassie gel and Superose 6 gel filtration, fractions immunoblotted; both purified; conditions: remark: other sources report otherwise
T2 chain: T1 chain

[5] = target: T3, TSC1 tagged with a C-terminal myc epitope, Q92574; test: co-IP; HEK 293T cells transfected with tagged constructs, with or without co-expressed TSC1; lysis in 50 mM HEPES pH 7.5, 10% glycerol, 1 mM DTT, 100 mM NaCl, 0.1% Triton X100; anti-V5 or anti-myc affinity beads, or anti-Xpress / anti-TSC2 with Protein A/G beads, 4°C; immunoblot; conditions: remark: other sources report otherwise
T3 chain: T1 chain

[6] = target: TSC2 A1153V5 (TSC2 amino acids 1-1153) (UniProt P49815); test: as above
[7] = target: TSC2 A614V5 (TSC2 amino acids 1-614) (UniProt P49815); test: as above
[8] = target: TSC2 F904V5 (TSC2 amino acids 1-904) (UniProt P49815); test: as above
[9] = target: TSC2 M1028V5 (TSC2 amino acids 1028-1784) (UniProt P49815); test: as above
[10] = target: TSC2 M1453V5 (TSC2 amino acids 1453-1784) (UniProt P49815); test: as above

- binding [1]: binds
- binding [2]: binds
B1: TSC1, co-expressed with the tagged TSC2 isoforms (Figure 2) (protein, UniProt Q92574 1-1164)
chain: T1 chain

- binding [3]: binds
B2: TSC1 tagged with a C-terminal myc epitope, Q92574 1-1164 (protein)
chain: T1 chain

- binding [4]: binds
B3: TSC1-TEV-myc, released from anti-myc beads by AcTEV, Q92574 1-1164 (protein)
chain: T1 chain

- binding [5]: binds
B4: TSC1 tagged with a C-terminal V5 epitope, Q92574 1-1164 (protein)
chain: T1 chain

- binding [6]: binds
- binding [7]: binds
- binding [8]: binds
- binding [9]: no binding
- binding [10]: no binding
- binding [2]: binds
B5: TSC1 tagged with a C-terminal myc epitope (protein, UniProt Q92574 1-1164)
chain: T1 chain
